The supplement of paper PMC8728848
The list shows a part of the results.

Tests used:
Assay in all cases: glycan array binding signal (z-score within array); higher = stronger binding
Conditions in all cases: glycan notation: IUPAC condensed, linker removed
Fuc(a1-3)GlcNAc = biological target: Fuc(a1-3)GlcNAc
In short: (§1)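 The binding signal is a Z-score computed within each array. Data were drawn from 3228 arrays in the Consortium for Functional Glycomics database, restricted to those with a known protein sequence. Scores were averaged over arrays of the same protein sequence at different concentrations or buffers, and over linkers, and negative values can be taken as non-binding.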

[1] = biological target: Fuc(a1-3)[Gal(b1-4)]Glc6S
In short: as §1

[2] = biological target: Fuc(a1-3)[Gal(b1-4)]GlcNAc
In short: as §1

[3] = biological target: Fuc(a1-3)[Gal(b1-4)]GlcNAc(b1-2)Man(a1-3)[Fuc(a1-3)[Gal(b1-4)]GlcNAc(b1-2)Man(a1-6)]Man(b1-4)GlcNAc(b1-4)GlcNAc
In short: as §1

[4] = biological target: Fuc(a1-3)[Gal(b1-4)]GlcNAc(b1-2)Man(a1-6)[Gal(b1-4)GlcNAc(b1-2)Man(a1-3)]Man(b1-4)GlcNAc(b1-4)GlcNAc
In short: as §1

[5] = biological target: Fuc(a1-3)[Gal(b1-4)]GlcNAc(b1-3)Gal(b1-3)[Fuc(a1-4)]GlcNAc
In short: as §1

[6] = biological target: Fuc(a1-3)[Gal(b1-4)]GlcNAc(b1-3)Gal(b1-4)[Fuc(a1-3)]GlcNAc
In short: as §1

[7] = biological target: Fuc(a1-3)[Gal(b1-4)]GlcNAc(b1-3)Gal(b1-4)[Fuc(a1-3)]GlcNAc(b1-3)Gal(b1-4)[Fuc(a1-3)]GlcNAc
In short: as §1

[8] = biological target: Fuc(a1-3)[Gal(b1-4)]GlcNAc(b1-4)Gal(b1-4)[Fuc(a1-3)]GlcNAc
In short: as §1

[9] = biological target: Fuc(a1-3)[Gal(b1-4)]GlcNAc(b1-4)Gal(b1-4)[Fuc(a1-3)]GlcNAc(b1-4)Gal(b1-4)[Fuc(a1-3)]GlcNAc
In short: as §1

[10] = biological target: Fuc(a1-3)[Gal(b1-4)]GlcNAc6S
In short: as §1

[11] = biological target: Fuc(a1-3)[Gal3S(b1-4)]Glc6S
In short: as §1

[12] = biological target: Fuc(a1-3)[Gal3S(b1-4)]GlcNAc
In short: as §1

[13] = biological target: Fuc(a1-3)[Gal3S(b1-4)]GlcNAc6S
In short: as §1

[14] = biological target: Fuc(a1-3)[GalNAc(b1-4)]GlcNAc
In short: as §1

[15] = biological target: Fuc(a1-3)[Neu5Ac(a2-3)]Gal(b1-4)GlcNAc(b1-3)GalNAc
In short: as §1

Fuc(a1-4)GlcNAc = biological target: Fuc(a1-4)GlcNAc
In short: as §1

Fuc(b1-3)GlcNAc = biological target: Fuc(b1-3)GlcNAc
In short: as §1

Gal(a1-2)Gal = biological target: Gal(a1-2)Gal
In short: as §1

Gal(a1-3)Gal = biological target: Gal(a1-3)Gal
In short: as §1

Gal(a1-3)Gal(b1-3)GlcNAc = biological target: Gal(a1-3)Gal(b1-3)GlcNAc
In short: as §1

Gal(a1-3)Gal(b1-4)Glc = biological target: Gal(a1-3)Gal(b1-4)Glc
In short: as §1

Gal(a1-3)Gal(b1-4)GlcNAc = biological target: Gal(a1-3)Gal(b1-4)GlcNAc
In short: as §1

[16] = biological target: Gal(a1-3)Gal(b1-4)[Fuc(a1-3)]GlcNAc
In short: as §1

[17] = biological target: Gal(a1-3)Gal(b1-4)[Fuc(a1-3)]GlcNAc(b1-2)Man(a1-3)[Gal(a1-3)Gal(b1-4)[Fuc(a1-3)]GlcNAc(b1-2)Man(a1-6)]Man(b1-4)GlcNAc(b1-4)GlcNAc
In short: as §1

Gal(a1-3)GalNAc = biological target: Gal(a1-3)GalNAc
In short: as §1

[18] = biological target: Gal(a1-3)[Gal(a1-4)]Gal(b1-4)GlcNAc
In short: as §1

Gal(a1-4)Gal(b1-4)Glc = biological target: Gal(a1-4)Gal(b1-4)Glc
In short: as §1

Gal(a1-4)Gal(b1-4)GlcNAc = biological target: Gal(a1-4)Gal(b1-4)GlcNAc
In short: as §1

[19] = biological target: Gal(a1-4)Gal(b1-4)GlcNAc(b1-3)Gal(b1-4)Glc
In short: as §1

Gal(a1-4)GlcNAc = biological target: Gal(a1-4)GlcNAc
In short: as §1

Gal(a1-6)Glc = biological target: Gal(a1-6)Glc
In short: as §1

Gal(b1-2)Gal = biological target: Gal(b1-2)Gal
In short: as §1

Gal(b1-3)Gal = biological target: Gal(b1-3)Gal
In short: as §1

Gal(b1-3)Gal(b1-4)GlcNAc = biological target: Gal(b1-3)Gal(b1-4)GlcNAc
In short: as §1

[20] = biological target: Gal(b1-3)Gal(b1-4)GlcNAc(b1-2)Man(a1-3)[Gal(b1-3)Gal(b1-4)GlcNAc(b1-2)Man(a1-6)]Man(b1-4)GlcNAc(b1-4)GlcNAc
In short: as §1

Gal(b1-3)GalNAc = biological target: Gal(b1-3)GalNAc
In short: as §1

[21] = biological target: Gal(b1-3)GalNAc(a1-3)[Fuc(a1-2)]Gal(b1-4)Glc
In short: as §1

[22] = biological target: Gal(b1-3)GalNAc(a1-3)[Fuc(a1-2)]Gal(b1-4)GlcNAc
In short: as §1

[23] = biological target: Gal(b1-3)GalNAc(b1-3)Gal(a1-4)Gal(b1-4)Glc
In short: as §1

[24] = biological target: Gal(b1-3)GalNAc(b1-4)Gal(b1-4)Glc
In short: as §1

[25] = biological target: Gal(b1-3)GalNAc(b1-4)[Neu5Ac(a2-3)]Gal(b1-4)Glc
In short: as §1

Gal(b1-3)GlcNAc = biological target: Gal(b1-3)GlcNAc
In short: as §1

[26] = biological target: Gal(b1-3)GlcNAc(b1-2)Man(a1-3)[Gal(b1-3)GlcNAc(b1-2)Man(a1-6)]Man(b1-4)GlcNAc(b1-4)GlcNAc
In short: as §1

[27] = biological target: Gal(b1-3)GlcNAc(b1-2)Man(a1-3)[Gal(b1-3)GlcNAc(b1-2)Man(a1-6)]Man(b1-4)GlcNAc(b1-4)[Fuc(a1-6)]GlcNAc
In short: as §1

B1: MVL (Microcystis viridis), Q9RHG4 (protein)
chain: MASYKVNIPAGPLWSNAEAQQVGPKIAAAHQGNFTGQWTTVVESAMSVVEVELQVENTGIHEFKTDVLAGPLWSNDEAQKLGPQIAASYGAEFTGQWRTIVEGVMSVIQIKYTF
Fuc(a1-3)GlcNAc
  glycan array binding signal (z-score): -0.234
[1]
  glycan array binding signal (z-score): -0.22
[2]
  glycan array binding signal (z-score): -0.239
[3]
  glycan array binding signal (z-score): 0.928
[4]
  glycan array binding signal (z-score): 1.1
[5]
  glycan array binding signal (z-score): -0.224
[6]
  glycan array binding signal (z-score): -0.221
[7]
  glycan array binding signal (z-score): -0.232
[8]
  glycan array binding signal (z-score): -0.176
[9]
  glycan array binding signal (z-score): -0.233
[10]
  glycan array binding signal (z-score): -0.219
[11]
  glycan array binding signal (z-score): -0.21
[12]
  glycan array binding signal (z-score): -0.218
[13]
  glycan array binding signal (z-score): -0.227
[14]
  glycan array binding signal (z-score): -0.221
[15]
  glycan array binding signal (z-score): -0.167
Fuc(a1-4)GlcNAc
  glycan array binding signal (z-score): -0.243
Fuc(b1-3)GlcNAc
  glycan array binding signal (z-score): -0.237
Gal(a1-2)Gal
  glycan array binding signal (z-score): -0.24
Gal(a1-3)Gal
  glycan array binding signal (z-score): -0.24
Gal(a1-3)Gal(b1-3)GlcNAc
  glycan array binding signal (z-score): -0.211
Gal(a1-3)Gal(b1-4)Glc
  glycan array binding signal (z-score): -0.226
Gal(a1-3)Gal(b1-4)GlcNAc
  glycan array binding signal (z-score): -0.239
[16]
  glycan array binding signal (z-score): -0.244
[17]
  glycan array binding signal (z-score): 0.321
Gal(a1-3)GalNAc
  glycan array binding signal (z-score): -0.229
[18]
  glycan array binding signal (z-score): -0.239
Gal(a1-4)Gal(b1-4)Glc
  glycan array binding signal (z-score): -0.242
Gal(a1-4)Gal(b1-4)GlcNAc
  glycan array binding signal (z-score): -0.241
[19]
  glycan array binding signal (z-score): -0.204
Gal(a1-4)GlcNAc
  glycan array binding signal (z-score): -0.234
Gal(a1-6)Glc
  glycan array binding signal (z-score): -0.241
Gal(b1-2)Gal
  glycan array binding signal (z-score): -0.242
Gal(b1-3)Gal
  glycan array binding signal (z-score): -0.24
Gal(b1-3)Gal(b1-4)GlcNAc
  glycan array binding signal (z-score): -0.229
[20]
  glycan array binding signal (z-score): 1.85
Gal(b1-3)GalNAc
  glycan array binding signal (z-score): -0.225
[21]
  glycan array binding signal (z-score): -0.233
[22]
  glycan array binding signal (z-score): -0.228
[23]
  glycan array binding signal (z-score): -0.242
[24]
  glycan array binding signal (z-score): -0.211
[25]
  glycan array binding signal (z-score): -0.252
Gal(b1-3)GlcNAc
  glycan array binding signal (z-score): -0.24
[26]
  glycan array binding signal (z-score): 1.51
[27]
  glycan array binding signal (z-score): 1.57
